Experimental data reported in the supplement of paper PMC10037445.
Whole data set: some 2,900 compounds, median “NF-kB SEAP reporter activity, fold change vs agonist alone” near 0.99, cut for the highest 2% near 2.6. The list shows a part of the results.

Assays:
RAW-Dual [1] = assay: NF-kB SEAP reporter activity, fold change vs agonist alone; cytotoxicity flag (confluency mask): not cytotoxic; higher = enhanced NF-kB activity
In short: (§1)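 Cytotoxic wells were those whose IncuCyte confluency was below 70% of agonist controls in both mask sets. The cells were RAW-Dual macrophages at 50,000 cells/well in DMEM on 384-well plates, dosed with 50 nL of library stock by pin tool, stimulated with a PRR agonist 1 h later, and kept at 37 °C, 5% CO2 for 20 hours. IRF and NF-κB reporter activity, as fold change over agonist-alone wells, came from supernatant read by QuantiLuc luminescence and QuantiBlue absorbance, respectively.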

RAW-Dual [2] = assay: NF-kB SEAP reporter activity, fold change vs agonist alone; higher = enhanced NF-kB activity
In short: as §1

RAW-Dual [3] = assay: NF-kB SEAP reporter activity, fold change vs agonist alone; cytotoxicity flag (confluency mask): cytotoxic (confluency <70% of control); higher = enhanced NF-kB activity
In short: as §1

[4] = agonist: ODN 1826 (TLR9) 0.5 ug/mL
[5] = agonist: Pam2CSK4 (TLR2/6) 0.1 ug/mL
[6] = agonist: Pam3CSK4 (TLR2/1) 0.1 ug/mL
[7] = library stock concentration (final ~1000-fold dilution): 10 mM, cytotoxicity flag (confluency mask): not cytotoxic, agonist: MPLA (TLR4) […]
[8] = library stock concentration (final ~1000-fold dilution): 10 mM, cytotoxicity flag (confluency mask): not cytotoxic, agonist: Imiquimod (TLR7) […]

## CN(C)CCC=C1c2ccccc2CCc2ccccc21.Cl (library stock concentration (final ~1000-fold dilution): 10 mM)
RAW-Dual [1]; agonist: LPS (TLR4) 0.1 ug/mL
  NF-kB SEAP reporter activity: 1.1
RAW-Dual [1]; [4]
  NF-kB SEAP reporter activity: 0.968
RAW-Dual [1]; [5]
  NF-kB SEAP reporter activity: 0.799
RAW-Dual [1]; [6]
  NF-kB SEAP reporter activity: 0.946

## CC(C)c1cnn2c(NCc3ccccc3-n3cccn3)nc(OC3CCCNC3)nc12 (stereo unspecified)
RAW-Dual [2]; library stock concentration (final ~1000-fold dilution): 10 mM, cytotoxicity flag (confluency mask): cytotoxic (confluency <70% of control), agonist: Imiquimod (TLR7) […]
  NF-kB SEAP reporter activity: 0.13
RAW-Dual [2]; library stock concentration (final ~1000-fold dilution): 10 mM, cytotoxicity flag (confluency mask): cytotoxic (confluency <70% of control), agonist: MPLA (TLR4) […]
  NF-kB SEAP reporter activity: 0.256

## CC(C)c1cnn2c(NCc3ccccc3-n3cccn3)nc(OC3CCCNC3)nc12 (stereo unspecified) (library stock concentration (final ~1000-fold dilution): 10 mM)
RAW-Dual [3]; agonist: LPS (TLR4) 0.1 ug/mL
  NF-kB SEAP reporter activity: 0.317
RAW-Dual [3]; [4]
  NF-kB SEAP reporter activity: 0.182
RAW-Dual [3]; [5]
  NF-kB SEAP reporter activity: 0.0648
RAW-Dual [3]; [6]
  NF-kB SEAP reporter activity: 0.259

## CNc1ncc2cc(-c3cc(NC(=O)NCCC(C)(C)C)c(F)cc3C)c(C)nc2n1
RAW-Dual [2]; library stock concentration (final ~1000-fold dilution): 2 mM, cytotoxicity flag (confluency mask): not cytotoxic, agonist: Imiquimod (TLR7) […]
  NF-kB SEAP reporter activity: 0.497
RAW-Dual [2]; library stock concentration (final ~1000-fold dilution): 2 mM, cytotoxicity flag (confluency mask): not cytotoxic, agonist: MPLA (TLR4) […]
  NF-kB SEAP reporter activity: 0.918

## CNc1ncc2cc(-c3cc(NC(=O)NCCC(C)(C)C)c(F)cc3C)c(C)nc2n1 (library stock concentration (final ~1000-fold dilution): 2 mM)
RAW-Dual [1]; agonist: LPS (TLR4) 0.1 ug/mL
  NF-kB SEAP reporter activity: 1.42
RAW-Dual [1]; [4]
  NF-kB SEAP reporter activity: 0.533
RAW-Dual [1]; [5]
  NF-kB SEAP reporter activity: 0.218
RAW-Dual [1]; [6]
  NF-kB SEAP reporter activity: 0.28

## CC1(C)SC2C(NC(=O)C(N)c3ccccc3)C(=O)N2C1C(=O)OCOC(=O)C1N2C(=O)CC2S(=O)(=O)C1(C)C (stereo unspecified) (library stock concentration (final ~1000-fold dilution): 10 mM)
RAW-Dual [1]; agonist: LPS (TLR4) 0.1 ug/mL
  NF-kB SEAP reporter activity: 1.06
RAW-Dual [1]; [4]
  NF-kB SEAP reporter activity: 0.886
RAW-Dual [1]; [5]
  NF-kB SEAP reporter activity: 1.16
RAW-Dual [1]; [6]
  NF-kB SEAP reporter activity: 0.993

## CC1(C)SC2C(NC(=O)C(N)c3ccccc3)C(=O)N2C1C(=O)OCOC(=O)C1N2C(=O)CC2S(=O)(=O)C1(C)C (stereo unspecified)
RAW-Dual [2]; [7]
  NF-kB SEAP reporter activity: 1.07

## COc1ccc2cccc(CCNC(C)=O)c2c1
RAW-Dual [2]; [8]
  NF-kB SEAP reporter activity: 0.972
RAW-Dual [2]; [7]
  NF-kB SEAP reporter activity: 0.963

## COc1ccc2cccc(CCNC(C)=O)c2c1 (library stock concentration (final ~1000-fold dilution): 10 mM)
RAW-Dual [1]; agonist: LPS (TLR4) 0.1 ug/mL
  NF-kB SEAP reporter activity: 1.33
RAW-Dual [1]; [4]
  NF-kB SEAP reporter activity: 1.09
RAW-Dual [1]; [5]
  NF-kB SEAP reporter activity: 1.03
RAW-Dual [1]; [6]
  NF-kB SEAP reporter activity: 1.19

## C=CC(=O)N1CC(Nc2ncnc3[nH]ccc23)CCC1C (stereo unspecified)
RAW-Dual [2]; [8]
  NF-kB SEAP reporter activity: 0.572
RAW-Dual [2]; [7]
  NF-kB SEAP reporter activity: 0.785

## C=CC(=O)N1CC(Nc2ncnc3[nH]ccc23)CCC1C (stereo unspecified) (library stock concentration (final ~1000-fold dilution): 10 mM)
RAW-Dual [1]; agonist: LPS (TLR4) 0.1 ug/mL
  NF-kB SEAP reporter activity: 0.655
RAW-Dual [1]; [4]
  NF-kB SEAP reporter activity: 0.682
RAW-Dual [1]; [5]
  NF-kB SEAP reporter activity: 0.56
RAW-Dual [1]; [6]
  NF-kB SEAP reporter activity: 0.738

## Cl.Cl.N/C(=N\OCC(O)CN1CCCCC1)c1cccnc1 (stereo unspecified)
RAW-Dual [2]; [8]
  NF-kB SEAP reporter activity: 0.94
RAW-Dual [2]; [7]
  NF-kB SEAP reporter activity: 1.08

## Cl.Cl.N/C(=N\OCC(O)CN1CCCCC1)c1cccnc1 (stereo unspecified) (library stock concentration (final ~1000-fold dilution): 10 mM)
RAW-Dual [1]; agonist: LPS (TLR4) 0.1 ug/mL
  NF-kB SEAP reporter activity: 1.1
RAW-Dual [1]; [4]
  NF-kB SEAP reporter activity: 0.949
RAW-Dual [1]; [5]
  NF-kB SEAP reporter activity: 1.15
RAW-Dual [1]; [6]
  NF-kB SEAP reporter activity: 1.09

## C=C1CC[C@@H]2[C@](C)(CO)[C@H](O)CC[C@@]2(C)[C@@H]1/C=C/C1=CCOC1=O
RAW-Dual [2]; [8]
  NF-kB SEAP reporter activity: 0.706
RAW-Dual [2]; [7]
  NF-kB SEAP reporter activity: 0.901
